Test results from the supplement of paper PMC11283458.
The list shows a part of the results. Single values are uncertain, as repeats are few or missing.

Each compound was assayed on Mef2d microexon (dual-luciferase reporter) (assay: delta PSI of alternative exon relative to 0.4% DMSO control (RT-PCR) (percentage points); higher = more exon inclusion). Settings: concentration: not stated (optimised per compound); Neuro-2a.
Experimental: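 Reads PSI of the Mef2d reporter microexon and of endogenous mouse neural alternative exons. dPSI is relative to the 0.4% DMSO control, single replicate.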
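Note: exons read include endogenous Mef2d, Mast2, Ergic3 and Trappc9 microexons plus the longer neural-regulated Zdhhc20, Mgrn1 and Asph cassette exons, alongside the reporter microexon.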

| Structure (SMILES) | delta PSI of alternative exon |
| --- | --- |
| Cc1cc(C(=O)NOCCO)c(Nc2ccc(I)cc2F)n(C)c1=O | 5.84 |
| O=S(=O)(N/N=C/c1cc(Cl)cc(Cl)c1O)c1ccc(Cl)cc1 | 15.7 |
| O=C(Nc1cccc(Cl)c1)Nc1ccc(Sc2ccccc2)nc1Sc1ccccc1 | -0.387 |
| CCN(CC)Cc1ccc2cc(COC(=O)Nc3ccc(C(=O)NO)cc3)ccc2c1 [Givinostat] | 11.4 |
| N#CC1=C(N)Oc2ccc3ccccc3c2C1c1cccc(F)c1 (configuration not stated) | -2.77 |
| Cc1onc(-c2c(Cl)cccc2Cl)c1C(=O)SCC(=O)Nc1ccc(F)cc1 | -9.91 |
| N#Cc1c(O)nsc1Nc1ccc(Cl)cc1 | -0.236 |
| CC(=O)OC1(C(=O)/C=C/c2ccccc2)CCCCC1 | -8.05 |
| CNC(=S)N/N=C/c1ccccc1O | 7.98 |
| COc1cc2c(cc1O)CC[C@@H]1[C@@H]2CC[C@]2(C)[C@@H](O)CC[C@@H]12 [2-Methoxyestradiol] | -1.92 |
| C=CCn1c(N)c(C(=O)NN=Cc2cccs2)sc1=S | 2.68 |
| O=C(NCCNc1ccc(C(F)(F)F)cn1)Nc1ccccc1Cl | -31.4 |
| Nc1nc(Nc2ccc(S(N)(=O)=O)cc2)nn1C(=S)Nc1c(F)cccc1F [Cdk1/2 Inhibitor III] | -25.6 |
| N[C@@H](CSC(c1ccccc1)(c1ccccc1)c1ccccc1)C(=O)O [S-Trityl-L-cysteine] | -8.83 |
| N#CC1(C#N)C(c2ccc(Br)s2)C(C(=O)c2ccccc2)N2c3ccccc3C=CC21 (configuration not stated) | -5.5 |
| N#CCc1ccc(Nc2nc(Nc3cc(C4CCC4)[nH]n3)c3ccccc3n2)cc1 | 6.71 |

| Structure (SMILES) | delta PSI of alternative exon |
| --- | --- |
| O=C(/C=C/c1ccc(CN(CCO)CCc2c[nH]c3ccccc23)cc1)NO | 15.8 |
| O=c1c(Cc2ccccc2Cl)c(-c2ccccc2)oc2ccccc12 | 0.207 |
| Nc1ncn(C2OC(CO)C(O)C2O)c(=O)n1 (configuration not stated) [Azacytidine-5] | -4.4 |
| Cc1onc(-c2c(Cl)cccc2Cl)c1C(=O)SCC(=O)Nc1ccc(Cl)cc1 | -8.55 |
| Nc1nc(=S)c2ncn([C@@H]3O[C@H](CO)[C@@H](O)[C@H]3O)c2[nH]1 [Thioguanosine] | -17.6 |
| O=C(CCCCCN1C(=O)c2cccc3cccc(c23)C1=O)NO [Scriptaid] | 19 |
| CCN(CC)C(=S)NC(=S)c1ccc(C)cc1 | 0.861 |
| COc1cc(OC)c(/C=C2/C(=O)Nc3ccccc32)c(OC)c1 | -5.13 |
| Nc1ccc(S(=O)(=O)Nc2cccc(C(F)(F)F)c2)cc1 | 2.3 |
| O=C(C=Cc1cc([N+](=O)[O-])ccc1Sc1ccc(C(F)(F)F)cn1)Nc1ccccc1 | -0.564 |
| Cc1[nH]c2ccccc2c1CCNCc1ccc(/C=C/C(=O)NO)cc1 [Panobinostat] | 17.1 |
| CC(C)(C)c1ccc2cc(C#N)c(C#N)cc2c1 | -7.29 |
| Cn1ncc(C(=O)Nc2ccc(Cl)c(Cl)c2)c1[N+](=O)[O-] | 4.34 |
| Cc1ccc(S(=O)(=O)N/N=C/c2cc(Cl)ccc2O)cc1 | 15.7 |
| CC(=O)Nc1cccc(-n2c(=O)n(C3CC3)c(=O)c3c(Nc4ccc(I)cc4F)n(C)c(=O)c(C)c32)c1 [Trametinib] | 7.62 |
| CCCCCCc1ccccc1NC(=O)Nc1cccnc1 | -0.0418 |
